According to PMC5945890:
Residue numbers refer to the chain shown, from its start. These are yes or no findings as the source states them, for the method shown. Binding seen in cells or lysates may run through a third protein. Some binding calls cover weakened binding; strength is not graded here. Where a sequence is shown, tags or fusion partners need not be part of it.

Assays:
[1] = target: T1, CPSF30-L-YFP^N (Arabidopsis thaliana) (UniProt A9LNK9); test: split reporter; BiFC; YFP^N and YFP^C fusions cotransfected into Arabidopsis mesophyll protoplasts, confocal microscopy; signal in the nucleus
T1 sequence: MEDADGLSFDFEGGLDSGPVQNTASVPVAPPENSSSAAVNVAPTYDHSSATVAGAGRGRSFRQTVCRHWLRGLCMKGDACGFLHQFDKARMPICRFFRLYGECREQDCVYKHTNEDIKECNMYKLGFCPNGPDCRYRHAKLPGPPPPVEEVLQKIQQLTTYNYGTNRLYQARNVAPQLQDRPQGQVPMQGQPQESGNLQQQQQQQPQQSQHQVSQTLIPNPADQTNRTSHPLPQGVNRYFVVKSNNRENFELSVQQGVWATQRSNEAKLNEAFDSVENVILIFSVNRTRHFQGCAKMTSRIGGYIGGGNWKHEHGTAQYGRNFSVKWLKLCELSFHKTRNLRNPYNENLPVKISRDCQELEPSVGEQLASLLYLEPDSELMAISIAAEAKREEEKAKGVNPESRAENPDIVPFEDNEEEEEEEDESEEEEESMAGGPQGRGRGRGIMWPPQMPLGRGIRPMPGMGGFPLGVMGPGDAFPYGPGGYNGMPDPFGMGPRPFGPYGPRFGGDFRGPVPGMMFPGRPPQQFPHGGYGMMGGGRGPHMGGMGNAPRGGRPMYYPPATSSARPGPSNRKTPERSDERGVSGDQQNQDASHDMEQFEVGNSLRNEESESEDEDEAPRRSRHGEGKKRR

[2] = target: T2, mCPSF30-L-YFP^N (Arabidopsis thaliana) (UniProt A9LNK9); test: as above
T2 sequence: T1 sequence with G126R

B1: FIP1-YFP^C (protein, UniProt F4KDH9 1-1196)
chain: MEEDDEFGDLYSDVLQPFQPPVVLPPPPPLPHRSIDLNLRSQDQDVSEPNSAPISRVSDNDAVKLSTQDATRQAIVDGGGDDKDMSFDIEEPDADSTPTIPGLFVTGALPGLATDRGVSQVTTRIEQQVGGGGDGGYGGQGEGDDWDSDSEDDLQIVLNDSSRNVMIGGADRRSRMGDNEDDDDEDDEDPLVIVADTDPNQPMEEQMWGEDGLQGIEGDGKDGGEAGKGSGPGGATGPPKAGYSSHGYHPFHSQFKYVRPGAAPIPGGAASVGGPSSGQVRPPANLGPMAGRGRGDWRPLGMRNASAAQKGFHQPWGSNTAGRGLDFTLPSHKTIFEVDIDSFEEKPWRYPGVEMTDYFNFGLNEESWKDYCKQLDQHRIQTTMQSRIRVYESGRTDQGYDPDLPPELAAATGAQGVPVDSSNLVKPDSVQGDSAKVPANVRPTLPPGRPIPVETGSGERLPSIDTRAPRMRDLDAIIEIVCQDSHEDEPSGENGTDQADSSLPGENVPVETSYVNNKRPDTESAEHSPAQDEPHKNLLKKQDDEISRSTDSGQSFRSSSPVGDRGTRSSSVDREDVGGEAGKDAEMGEELKMSFTSPQSAVQEDDGGESKTERSSESSKARSGSHRDFQQEEDVIQDKHSSRPANNRKQYDNNAPHQSRKNQDRGKEMERTRAASKGGRENSNPHMELDSTYIYSIASREDFDKRKERDVDGAVWRRKEDDPYSRRGGDEGSRKRDREDDPGFRQRGKMRENEIRSKDDQVPSRKHMDDAGMRNIYEPDDHINKRRKDEEYLRRSRPEKNEISYGQRESMSRVKRERDDRLEHQKRDVQHKIRDDFDDHGSLRQRDDIYMQRDGNERLRERDVLDKLKLPHEDGISARGRERQVAVRGHRGSEDRSSRMKDEYKASDKEHVTKDTLRHAKQTKRRDYPGEESSSHHRGHEDFSARTDNIVNNEKKPRQERTGAKIDKFIDTLDGQRLQDRKHKDSRRKIKEQREGTESLSKQGEQNGSSVVTGSKGTNDARNCRSEIPHQPNTAKRHKENASSGDEIHDSKRGRTKLERWASHKEREDAVSAKSSSISSKLEEKENNTNGRLSEPVHGSIGKSRDVTEEKIGHDLADTKDGSEKGPGDRHLDTVEKLKKRSERFKLPMPTEKDTTGVKKMESETLPSAKIEGPVDSEGEYVWDERSCVRIGREYA
- binding [1]: binds
- binding [2]: no binding
